Laboratory results: the supplement of paper PMC7266297
Where “and” joins values, the source holds several entries; their conditions need not be identical. Identical values can stand only once. Counter-ions that a name gives are not always drawn. The list shows a part of the results. Most values come without repeats; read them as rough.

Assays:
KB-3-1 = assay: growth inhibition relative to DMSO control (SRB); cervical cancer cells: KB-3-1 is the parent and KB-V1 overexpresses MDR1; SRB is the sulforhodamine B stain; higher = more growth inhibition; conditions: 1 µM; 72 h
KB-V1 = assay: as above; conditions: 1 µM; 72 h
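Also: Read-out is SRB optical density at 490 nm, with the control being wells given 0.5% DMSO vehicle, and compound added one day after cells were plated.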

## Cc1cc(C)c(CNC(=O)c2cc(-c3ccc(CN4CCOCC4)cc3)cc3c2cnn3C2CCCC2)c(=O)[nH]1
KB-3-1
  growth inhibition: 15.3%
KB-V1
  growth inhibition: 24.6%

## COc1ccc(-c2nc3cc(C4=NNC(=O)CC4C)ccc3[nH]2)cc1 (stereo not given) [Pimobendan]
KB-3-1
  growth inhibition: 43.1%
KB-V1
  growth inhibition: 14.7%

## C[C@@H]1CCN(C(=O)CC#N)C[C@@H]1N(C)c1ncnc2[nH]ccc12
KB-3-1
  growth inhibition: 15.8% and < 0%

## COc1ccc(-c2ccc3c(N4CCOC[C@@H]4C)nc(N4CCOC[C@@H]4C)nc3n2)cc1CO
KB-3-1
  growth inhibition: 90.6%
KB-V1
  growth inhibition: 84%

## O=C(Nc1ccc(OC(F)(F)F)cc1)c1sccc1NCc1ccnc2ccccc12
KB-3-1
  growth inhibition: 40.7%
KB-V1
  growth inhibition: 30.1%

## C[C@@H](N)[C@H]1CC[C@H](C(=O)Nc2ccncc2)CC1
KB-3-1
  growth inhibition: 13.8%
KB-V1
  growth inhibition: 28%

## CCOc1ccn(-c2ccc(F)cc2)c(=O)c1C(=O)Nc1ccc(Oc2ccnc(N)c2Cl)c(F)c1
KB-3-1
  growth inhibition: 30.7%
KB-V1
  growth inhibition: 19.3%

## CN1CCN(CCOc2cc(OC3CCOCC3)c3c(Nc4c(Cl)ccc5c4OCO5)ncnc3c2)CC1 [Saracatinib (AZD0530)]
KB-3-1
  growth inhibition: 32.4%
KB-V1
  growth inhibition: 30%

## Cc1c(C(=O)N2CCOc3ccc(-c4ccc(N)nc4)cc3C2)ccc(S(C)(=O)=O)c1F
KB-3-1
  growth inhibition: 73.2%
KB-V1
  growth inhibition: 42.7%

## Cc1cc(Nc2ncc(Cl)c(Nc3ccccc3S(=O)(=O)C(C)C)n2)c(OC(C)C)cc1C1CCNCC1
KB-3-1
  growth inhibition: 73.2%
KB-V1
  growth inhibition: 66.8%

## Cc1ncc(-c2ccnc(Nc3ccc(S(C)(=O)=O)cc3)n2)n1C(C)C
KB-3-1
  growth inhibition: 61.7%
KB-V1
  growth inhibition: 13.8%

## CCn1c(-c2nonc2N)nc2c(C#CC(C)(C)O)ncc(OC[C@H]3CCCNC3)c21
KB-3-1
  growth inhibition: 53.4%
KB-V1
  growth inhibition: 38.9%

## CCNC(=O)c1noc(-c2cc(C(C)C)c(O)cc2O)c1-c1ccc(CN2CCOCC2)cc1
KB-3-1
  growth inhibition: 91.7%
KB-V1
  growth inhibition: 79.7%

## Cc1cnc(-c2cnc(NCCNc3ccc(C#N)cn3)nc2-c2ccc(Cl)cc2Cl)[nH]1
KB-3-1
  growth inhibition: < 0%
KB-V1
  growth inhibition: 3.17%

## CC(C(O)c1ccc(O)cc1)N1CCC(Cc2ccccc2)CC1 (stereo not given) [Ifenprodil Tartrate]
KB-3-1
  growth inhibition: 3.41%
KB-V1
  growth inhibition: < 0%

## CCCN[C@H]1CCc2nc(N)sc2C1 [Pramipexole]
KB-3-1
  growth inhibition: 26.9%
KB-V1
  growth inhibition: 12.8%

## Nc1nc(OCc2cc(Br)cs2)c2[nH]cnc2n1 [Lomeguatrib]
KB-3-1
  growth inhibition: 41.3%
KB-V1
  growth inhibition: 8.02%

## Cc1ccc(Nc2nccc(N(C)c3ccc4c(C)n(C)nc4c3)n2)cc1S(N)(=O)=O
KB-3-1
  growth inhibition: 68.8%
KB-V1
  growth inhibition: 37.6%

## O=C1C[C@@H](c2ccc(O)cc2)Oc2cc(O)cc(O)c21 [Naringenin]
KB-3-1
  growth inhibition: < 0%
KB-V1
  growth inhibition: 14%

## NC(=O)[C@@H](CCC(F)(F)F)N(Cc1ccc(-c2ncon2)cc1F)S(=O)(=O)c1ccc(Cl)cc1
KB-3-1
  growth inhibition: < 0%
KB-V1
  growth inhibition: 36.3%

## CCCC(CCC)C(=O)O [Divalproex Sodium]
KB-3-1
  growth inhibition: 48%
KB-V1
  growth inhibition: 19.4%

## COc1cc2nccc(Oc3ccc(NC(=O)NC4CC4)c(Cl)c3)c2cc1C(N)=O [Lenvatinib (E7080)]
KB-3-1
  growth inhibition: 41.3%
KB-V1
  growth inhibition: 34%

## CN1CCC(CNc2ccc3ncc(-c4cccc(OC(F)(F)F)c4)n3n2)CC1 [SGI-1776 free base]
KB-3-1
  growth inhibition: < 0%
KB-V1
  growth inhibition: 58.9%

## O=C(c1ccc(OCCN2CCCCC2)cc1)c1c(-c2ccc(O)cc2)sc2cc(O)ccc12 [Raloxifene HCl]
KB-3-1
  growth inhibition: 35.6%
KB-V1
  growth inhibition: 43.1%

## Cn1cc(/C=C2\C(=O)Nc3cccnc32)c2ccccc21
KB-3-1
  growth inhibition: 31%
KB-V1
  growth inhibition: 3.61%

## Cc1ccc(Sc2ccccc2N2CCNCC2)c(C)c1
KB-3-1
  growth inhibition: 46.3%
KB-V1
  growth inhibition: 3.09%

## Nc1ncn([C@@H]2O[C@H](CO)[C@@H](O)[C@H]2O)c(=O)n1 [Azacitidine]
KB-3-1
  growth inhibition: 63.7%
KB-V1
  growth inhibition: 31.4%

## O=C1NC(=O)/C(=C/c2cccc(C(F)(F)F)c2)S1
KB-3-1
  growth inhibition: 45.3%
KB-V1
  growth inhibition: 5.56%

## C[N+]1(C)[C@@H]2C[C@@H](OC(=O)C(O)(c3cccs3)c3cccs3)C[C@H]1[C@@H]1O[C@@H]12 [Tiotropium Bromide hydrate]
KB-3-1
  growth inhibition: 24.2%
KB-V1
  growth inhibition: 7.45%

## CC(C)OC(=O)OCOP(=O)(CO[C@H](C)Cn1cnc2c(N)ncnc21)OCOC(=O)OC(C)C [Tenofovir Disoproxil Fumarate]
KB-3-1
  growth inhibition: 16.9%
KB-V1
  growth inhibition: 30.5%

## CN1C(C(=O)Nc2ccccn2)=C(O)c2ccccc2S1(=O)=O [Piroxicam]
KB-3-1
  growth inhibition: 40.7%
KB-V1
  growth inhibition: 14.2%

## Cc1ccc(C(=O)Nc2ccc(CN3CCN(C)CC3)c(C(F)(F)F)c2)cc1C#Cc1cnc2[nH]ncc2c1
KB-3-1
  growth inhibition: 54.8%
KB-V1
  growth inhibition: 46.5%

## COc1ccc(-c2ccc3ncc4c(c3c2)n(-c2ccc(N3CCNCC3)c(C(F)(F)F)c2)c(=O)n4C)cn1
KB-3-1
  growth inhibition: 100%
KB-V1
  growth inhibition: 100%

## COc1ccc(Cn2ccc3ccc(C(=O)NO)cc32)cc1
KB-3-1
  growth inhibition: 42.9%
KB-V1
  growth inhibition: 23.8%

## COc1ccc(C[C@@H]2c3cc(OC)c(OC)cc3CC[N@+]2(C)CCC(=O)OCCCCCOC(=O)CC[N@@+]2(C)CCc3cc(OC)c(OC)cc3[C@H]2Cc2ccc(OC)c(OC)c2)cc1OC [Cisatracurium Besylate]
KB-3-1
  growth inhibition: < 0%
KB-V1
  growth inhibition: < 0%

## Cc1c(Cl)cccc1Nc1ccccc1C(=O)O [Tolfenamic Acid]
KB-3-1
  growth inhibition: 49.3%
KB-V1
  growth inhibition: 21.6%

## COc1ccc2cc([C@H](C)C(=O)O)ccc2c1 [Naproxen]
KB-3-1
  growth inhibition: 27.1%
KB-V1
  growth inhibition: 7.89%

## CNC(=O)c1ccccc1Nc1nc(Nc2ccc(N3CCOCC3)cc2OC)ncc1Cl
KB-3-1
  growth inhibition: 66.9%
KB-V1
  growth inhibition: 49.8%

## COC(=O)N1CCN(Cc2cccc(NC(=O)Nc3ccc(C)nc3)c2F)CC1
KB-3-1
  growth inhibition: 26%
KB-V1
  growth inhibition: 9.57%

## O=C1Nc2ccc(I)cc2/C1=C/c1cc(Br)c(O)c(Br)c1
KB-3-1
  growth inhibition: < 0%
KB-V1
  growth inhibition: 21.9%

## Cc1ccc(CNc2ncnc3ccc(-c4ccc(CO)o4)cc23)o1
KB-3-1
  growth inhibition: 55.9%
KB-V1
  growth inhibition: 16.7%

## O=C(/C=C/c1cccc(S(=O)(=O)Nc2ccccc2)c1)NO [Belinostat (PXD101)]
KB-3-1
  growth inhibition: 83.2%
KB-V1
  growth inhibition: 85.8%

## CC(=O)Nc1ccc(NC(=S)NC(=O)c2ccc(C(C)(C)C)cc2)cc1 [Tenovin-1]
KB-3-1
  growth inhibition: 39.6%
KB-V1
  growth inhibition: 3.09%

## CC(C)C[C@H](NC(=O)CNC(=O)c1cc(Cl)ccc1Cl)B(O)O
KB-3-1
  growth inhibition: < 0%
KB-V1
  growth inhibition: < 0%

## O=C(c1ccc(/C=C/c2n[nH]c3ccccc23)cc1)N1CCNCC1
KB-3-1
  growth inhibition: < 0%
KB-V1
  growth inhibition: 29%

## CC1=C(C(=O)OC(C)C)C(c2cccc([N+](=O)[O-])c2)C(C(=O)OC2CN(C(c3ccccc3)c3ccccc3)C2)=C(N)N1 (stereo not given) [Azelnidipine]
KB-3-1
  growth inhibition: < 0%
KB-V1
  growth inhibition: 34.2%

## C[C@@]1(C(=O)Nc2ccc(F)nc2)CCCN1c1nc(Nc2cc(C3CC3)n[nH]2)c2cccn2n1
KB-3-1
  growth inhibition: 92.9%
KB-V1
  growth inhibition: 78.6%

## CCc1cccc(CC)c1NC(=O)N1Cc2[nH]nc(NC(=O)c3ccc(N4CCN(C)CC4)cc3)c2C1
KB-3-1
  growth inhibition: 76%
KB-V1
  growth inhibition: 29.7%

## O=C1CCC(N2C(=O)c3ccccc3C2=O)C(=O)N1 (stereo not given) [Thalidomide]
KB-3-1
  growth inhibition: 44.5%
KB-V1
  growth inhibition: 31.7%

## CC1(C)Cc2c(-c3ccccc3)c(-c3ccc(Cl)cc3)c(CC(=O)O)n2C1 [Licofelone]
KB-3-1
  growth inhibition: 1.16%
KB-V1
  growth inhibition: 36.4%

## COc1ccc(CCc2nc3cc(-c4c(C)noc4C)ccc3n2C[C@H](C)N2CCOCC2)cc1Cl
KB-3-1
  growth inhibition: 20.6%
KB-V1
  growth inhibition: 18.8%

## CCCCc1nc(Cl)c(CO)n1Cc1ccc(-c2ccccc2-c2nnn[nH]2)cc1 [Losartan Potassium (DuP 753)]
KB-3-1
  growth inhibition: 12.9%
KB-V1
  growth inhibition: 34.5%

## COCC(=O)NC/C=C/c1ccc2ncnc(Nc3ccc(Oc4ccc(C)nc4)c(C)c3)c2c1
KB-3-1
  growth inhibition: 21.5%
KB-V1
  growth inhibition: 33.8%

## Cc1cc2c(cc1CC(=O)c1sccc1S(=O)(=O)Nc1onc(C)c1Cl)OCO2 [Sitaxentan sodium]
KB-3-1
  growth inhibition: < 0%
KB-V1
  growth inhibition: 3.17%

## CN(C[C@@H]1COCCO1)S(=O)(=O)Nc1ccc2ccc3ncc(-c4cnn(C)c4)cc3c(=O)c2c1
KB-3-1
  growth inhibition: 19.9%
KB-V1
  growth inhibition: 53.5%

## Cc1cc(C)c(Nc2ccnc(Nc3ccc(C#N)cc3)n2)c(C)c1 [Dapivirine (TMC120)]
KB-3-1
  growth inhibition: 2.81%
KB-V1
  growth inhibition: 15.9%

## CN1C(C(=O)Nc2ccccn2)=C(O)c2sc(Cl)cc2S1(=O)=O [Lornoxicam]
KB-3-1
  growth inhibition: 24.5%
KB-V1
  growth inhibition: 21.3%

## CC(C)N(CCC(=O)c1ccc2ccccc2c1)Cc1ccccc1
KB-3-1
  growth inhibition: 60%
KB-V1
  growth inhibition: 17.9%

## CC1(C)CNc2cc(NC(=O)c3cccnc3NCc3ccncc3)ccc21 [Motesanib Diphosphate (AMG-706)]
KB-3-1
  growth inhibition: 68.1%
KB-V1
  growth inhibition: 38.6%

## C[C@H](Nc1ncnc2nc[nH]c12)c1cc2cccc(Cl)c2c(=O)n1-c1ccccc1
KB-3-1
  growth inhibition: 10.3%
KB-V1
  growth inhibition: 25.4%

## Nc1ccn([C@@H]2CS[C@H](CO)O2)c(=O)n1 [Lamivudine]
KB-3-1
  growth inhibition: 41.4%
KB-V1
  growth inhibition: 14.5%

## O=c1cc(-c2ccccc2)oc2cc(O)c(O)c(O)c12 [Baicalein]
KB-3-1
  growth inhibition: < 0%
KB-V1
  growth inhibition: 40.2%

## C[C@]12CCC3=C4CCC(=O)C=C4CC[C@H]3[C@@H]1CC[C@@]2(O)CC#N [Dienogest]
KB-3-1
  growth inhibition: 38.7%
KB-V1
  growth inhibition: 41.8%

## CCc1cc(Nc2nccc(-c3c(-c4ccc(OC)c(C(=O)Nc5c(F)cccc5F)c4)nc4ccccn34)n2)c(OC)cc1N1CCC(N2CCN(S(C)(=O)=O)CC2)CC1
KB-3-1
  growth inhibition: 39.3%
KB-V1
  growth inhibition: 44.7%

## OCCn1cc(-c2cnc3nnn(Cc4ccc5ncccc5c4)c3n2)cn1
KB-3-1
  growth inhibition: 20.3%
KB-V1
  growth inhibition: 33.5%

## CC(=O)Oc1ccccc1C(=O)O [Aspirin]
KB-3-1
  growth inhibition: < 0%
KB-V1
  growth inhibition: 0.244%

## Cc1cc(O)c2c(c1)C(=O)c1cccc(O)c1C2=O [Chrysophanic Acid]
KB-3-1
  growth inhibition: < 0%
KB-V1
  growth inhibition: 32.7%

## Cc1cccc(CC(=O)N2CCc3c2ccc(-c2cn(C)c4ncnc(N)c24)c3F)n1
KB-3-1
  growth inhibition: 33.6%
KB-V1
  growth inhibition: 29.6%

## CC(C)c1c(C(=O)Nc2ccccc2)c(-c2ccccc2)c(-c2ccc(F)cc2)n1CC[C@@H](O)C[C@@H](O)CC(=O)O [Atorvastatin Calcium]
KB-3-1
  growth inhibition: 21.8%
KB-V1
  growth inhibition: 21.8%

## CNC(=O)CN1CCC(Oc2cc3c(Nc4cccc(Cl)c4F)ncnc3cc2OC)CC1 [AZD8931 (Sapitinib)]
KB-3-1
  growth inhibition: 0.943%
KB-V1
  growth inhibition: 29%

## C#C[C@]1(OC(C)=O)CC[C@H]2[C@@H]3CCC4=C[C@@H](OC(C)=O)CC[C@@H]4[C@H]3CC[C@@]21C [Ethynodiol diacetate]
KB-3-1
  growth inhibition: < 0%
KB-V1
  growth inhibition: 8.71%

## O=P(O)(O)C(O)(Cn1ccnc1)P(=O)(O)O [Zoledronic Acid]
KB-3-1
  growth inhibition: 13.5%
KB-V1
  growth inhibition: 38.3%

## Cc1cccc(Nc2ccccc2C(=O)O)c1C [Mefenamic Acid]
KB-3-1
  growth inhibition: 33.6%
KB-V1
  growth inhibition: 9.32%
